# Assay results: the supplement of paper PMC8728848
# This is one part of the list.
# Columns and labels:
# Assay in all cases: glycan array binding signal (z-score within array); higher = stronger binding
# Conditions in all cases: glycan notation: IUPAC condensed, linker removed; mutation: H262T
# [1] = target: Man(a1-2)Man(a1-3)[Man(a1-2)Man(a1-6)]Man
# How it was run: (§1)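 The binding signal is a Z-score computed within each array and averaged over linkers. Arrays of the same protein sequence at different concentrations or buffers were also averaged together. Data originate from 3228 arrays in the Consortium for Functional Glycomics database, kept only where the protein sequence was available.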
# [2] = target: Man(a1-2)Man(a1-3)[Man(a1-2)Man(a1-6)]Man(a1-6)[Man(a1-2)Man(a1-2)Man(a1-3)]Man
# How it was run: as §1
# [3] = target: Man(a1-2)Man(a1-3)[Man(a1-2)Man(a1-6)]Man(a1-6)[Man(a1-2)Man(a1-2)Man(a1-3)]Man(b1-4)GlcNAc(b1-4)GlcNAc
# How it was run: as §1
# [4] = target: Man(a1-2)Man(a1-3)[Man(a1-6)]Man(a1-6)[Man(a1-2)Man(a1-3)]Man(b1-4)GlcNAc(b1-4)GlcNAc
# How it was run: as §1
# [5] = target: Man(a1-2)Man(a1-6)[Man(a1-3)]Man(a1-6)[Man(a1-2)Man(a1-2)Man(a1-3)]Man
# How it was run: as §1
# [6] = target: Man(a1-2)Man(a1-6)[Man(a1-3)]Man(a1-6)[Man(a1-2)Man(a1-2)Man(a1-3)]Man(b1-4)GlcNAc(b1-4)GlcNAc
# How it was run: as §1
# [7] = target: Man(a1-3)[Man(a1-6)]Man
# How it was run: as §1
# [8] = target: Man(a1-3)[Man(a1-6)]Man(a1-6)[Man(a1-2)Man(a1-3)]Man(b1-4)GlcNAc(b1-4)GlcNAc
# How it was run: as §1
# [9] = target: Man(a1-3)[Man(a1-6)]Man(a1-6)[Man(a1-3)]Man
# How it was run: as §1
# [10] = target: Man(a1-3)[Man(a1-6)]Man(a1-6)[Man(a1-3)]Man(b1-4)GlcNAc(b1-4)GlcNAc
# How it was run: as §1
# [11] = target: Man(a1-3)[Man(a1-6)]Man(b1-4)GlcNAc(b1-4)GlcNAc
# How it was run: as §1
# [12] = target: Man(a1-3)[Man(a1-6)]Man(b1-4)GlcNAc(b1-4)[Fuc(a1-6)]GlcNAc
# How it was run: as §1
# [13] = target: Man(a1-6)Man
# How it was run: as §1
# [14] = target: Man(b1-4)GlcNAc
# How it was run: as §1
# [15] = target: MurNAc(b1-4)GlcNAc
# How it was run: as §1
# [16] = target: Neu5Ac(a2-3)Gal
# How it was run: as §1
# [17] = target: Neu5Ac(a2-3)Gal(b1-3)GalNAc
# How it was run: as §1
# [18] = target: Neu5Ac(a2-3)Gal(b1-3)GalNAc(b1-3)Gal(a1-4)Gal(b1-4)Glc
# How it was run: as §1
# [19] = target: Neu5Ac(a2-3)Gal(b1-3)GalNAc(b1-4)[Neu5Ac(a2-3)]Gal(b1-4)Glc
# How it was run: as §1
# [20] = target: Neu5Ac(a2-3)Gal(b1-3)GalNAc(b1-4)[Neu5Ac(a2-8)Neu5Ac(a2-3)]Gal(b1-4)Glc
# How it was run: as §1
# [21] = target: Neu5Ac(a2-3)Gal(b1-3)GalNAc6S
# How it was run: as §1
# [22] = target: Neu5Ac(a2-3)Gal(b1-3)GlcNAc
# How it was run: as §1
# [23] = target: Neu5Ac(a2-3)Gal(b1-3)GlcNAc(b1-2)Man
# How it was run: as §1
# [24] = target: Neu5Ac(a2-3)Gal(b1-3)GlcNAc(b1-2)Man(a1-3)[GlcNAc(b1-4)][Neu5Ac(a2-3)Gal(b1-3)GlcNAc(b1-2)Man(a1-6)]Man(b1-4)GlcNAc(b1-4)GlcNAc
# How it was run: as §1
# [25] = target: Neu5Ac(a2-3)Gal(b1-3)GlcNAc(b1-2)Man(a1-3)[Neu5Ac(a2-3)Gal(b1-3)GlcNAc(b1-2)Man(a1-6)]Man(b1-4)GlcNAc(b1-4)GlcNAc
# How it was run: as §1
# [26] = target: Neu5Ac(a2-3)Gal(b1-3)GlcNAc(b1-2)[Neu5Ac(a2-3)Gal(b1-3)GlcNAc(b1-4)]Man(a1-6)[Neu5Ac(a2-3)Gal(b1-3)GlcNAc(b1-2)Man(a1-3)]Man(b1-4)GlcNAc(b1-4)GlcNAc
# How it was run: as §1
# [27] = target: Neu5Ac(a2-3)Gal(b1-3)GlcNAc(b1-3)Gal(b1-3)GlcNAc
# How it was run: as §1
# [28] = target: Neu5Ac(a2-3)Gal(b1-3)GlcNAc(b1-3)Gal(b1-4)GlcNAc
# How it was run: as §1
# [29] = target: Neu5Ac(a2-3)Gal(b1-3)GlcNAc(b1-3)GalNAc
# How it was run: as §1
# [30] = target: Neu5Ac(a2-3)Gal(b1-3)GlcNAc(b1-4)Gal(b1-4)Glc
# How it was run: as §1
# [31] = target: Neu5Ac(a2-3)Gal(b1-3)GlcNAc(b1-6)GalNAc
# How it was run: as §1
# [32] = target: Neu5Ac(a2-3)Gal(b1-3)GlcNAc6S
# How it was run: as §1
# [33] = target: Neu5Ac(a2-3)Gal(b1-3)[Fuc(a1-4)]GlcNAc
# How it was run: as §1
# [34] = target: Neu5Ac(a2-3)Gal(b1-3)[Fuc(a1-4)]GlcNAc(b1-3)Gal(b1-3)[Fuc(a1-4)]GlcNAc
# How it was run: as §1
# [35] = target: Neu5Ac(a2-3)Gal(b1-3)[Fuc(a1-4)]GlcNAc(b1-3)Gal(b1-4)[Fuc(a1-3)]GlcNAc
# How it was run: as §1
# [36] = target: Neu5Ac(a2-3)Gal(b1-3)[GlcNAc(b1-6)]GalNAc
# How it was run: as §1
# [37] = target: Neu5Ac(a2-3)Gal(b1-3)[Neu5Ac(a2-6)]GalNAc
# How it was run: as §1
# [38] = target: Neu5Ac(a2-3)Gal(b1-3)[Neu5Ac(a2-6)]GlcNAc(b1-3)[Fuc(a1-3)[Gal(b1-4)]GlcNAc(b1-6)]Gal(b1-4)Glc
# How it was run: as §1
# [39] = target: Neu5Ac(a2-3)Gal(b1-3)]Neu5Ac(a2-3)Gal(b1-4)]GlcNAc
# How it was run: as §1
# [40] = target: Neu5Ac(a2-3)Gal(b1-4)Glc
# How it was run: as §1
# [41] = target: Neu5Ac(a2-3)Gal(b1-4)GlcNAc
# How it was run: as §1
# [42] = target: Neu5Ac(a2-3)Gal(b1-4)GlcNAc(b1-2)Man
# How it was run: as §1
# [43] = target: Neu5Ac(a2-3)Gal(b1-4)GlcNAc(b1-2)Man(a1-3)[GlcNAc(b1-4)][Neu5Ac(a2-3)Gal(b1-4)GlcNAc(b1-2)Man(a1-6)]Man(b1-4)GlcNAc(b1-4)GlcNAc
# How it was run: as §1
# [44] = target: Neu5Ac(a2-3)Gal(b1-4)GlcNAc(b1-2)Man(a1-3)[Neu5Ac(a2-3)Gal(b1-4)GlcNAc(b1-2)Man(a1-6)]Man(b1-4)GlcNAc(b1-4)GlcNAc
# How it was run: as §1
# [45] = target: Neu5Ac(a2-3)Gal(b1-4)GlcNAc(b1-2)Man(a1-3)[Neu5Ac(a2-3)Gal(b1-4)GlcNAc(b1-2)Man(a1-6)]Man(b1-4)GlcNAc(b1-4)[Fuc(a1-6)]GlcNAc
# How it was run: as §1
binder,measurement,setting,value
MGL6A (Homo sapiens) (protein) MTRTYENFQYLENKVKVQGFKNGPLPLQSLLQRLCSGPCHLLLSLGLGLLLLVIICVVGFQNSKFQRDLVTLRTDFSNFTSNTVAEIQALTSQGSSLEETIASLKAEVEGFKQERQAVHSEMLLRVQQLVQDLKKLTCQVATLNNNGEEASTEGTCCPVNWVEHQDSCYWFSHSGMSWAEAEKYCQLKNAHLVVINSREEQNFVQKYLGSAYTWMGLSDPEGAWKWVDGTDYATGFQNWKPGQPDDWQGHGLGGGEDCAHFTPDGRWNDDVCQRPYHWVCEAGLGQTSQESH,glycan array binding signal (z-score),[1],-0.175
same,glycan array binding signal (z-score),[2],-0.174
same,glycan array binding signal (z-score),[3],-0.182
same,glycan array binding signal (z-score),[4],-0.173
same,glycan array binding signal (z-score),[5],-0.176
same,glycan array binding signal (z-score),[6],-0.179
same,glycan array binding signal (z-score),[7],-0.173
same,glycan array binding signal (z-score),[8],-0.153
same,glycan array binding signal (z-score),[9],-0.167
same,glycan array binding signal (z-score),[10],-0.163
same,glycan array binding signal (z-score),[11],-0.176
same,glycan array binding signal (z-score),[12],-0.172
same,glycan array binding signal (z-score),[13],-0.176
same,glycan array binding signal (z-score),[14],-0.172
same,glycan array binding signal (z-score),[15],-0.172
same,glycan array binding signal (z-score),[16],-0.177
same,glycan array binding signal (z-score),[17],-0.16
same,glycan array binding signal (z-score),[18],-0.176
same,glycan array binding signal (z-score),[19],-0.172
same,glycan array binding signal (z-score),[20],-0.177
same,glycan array binding signal (z-score),[21],-0.171
same,glycan array binding signal (z-score),[22],-0.176
same,glycan array binding signal (z-score),[23],-0.176
same,glycan array binding signal (z-score),[24],-0.177
same,glycan array binding signal (z-score),[25],-0.174
same,glycan array binding signal (z-score),[26],-0.175
same,glycan array binding signal (z-score),[27],-0.177
same,glycan array binding signal (z-score),[28],-0.176
same,glycan array binding signal (z-score),[29],-0.173
same,glycan array binding signal (z-score),[30],-0.175
same,glycan array binding signal (z-score),[31],2.9
same,glycan array binding signal (z-score),[32],-0.17
same,glycan array binding signal (z-score),[33],-0.178
same,glycan array binding signal (z-score),[34],-0.172
same,glycan array binding signal (z-score),[35],-0.157
same,glycan array binding signal (z-score),[36],-0.31
same,glycan array binding signal (z-score),[37],-0.177
same,glycan array binding signal (z-score),[38],-0.17
same,glycan array binding signal (z-score),[39],-0.169
same,glycan array binding signal (z-score),[40],-0.166
same,glycan array binding signal (z-score),[41],-0.178
same,glycan array binding signal (z-score),[42],-0.155
same,glycan array binding signal (z-score),[43],-0.176
same,glycan array binding signal (z-score),[44],-0.123
same,glycan array binding signal (z-score),[45],-0.17
